In the RNAGym collection of RNA variant scans (doi:10.1073/pnas.2313332121):
Variants at the background level are over-represented here.

B1: TPR 5TU (parent)
chain: GGAUCUUCUCGAUCUAACAAAAAAGACAAAUCUGCCACAAAGCUUGAGAGCAUCUUCGGAUGCAGAGGCGGCAGCCUUCGGUGGCGCGAUAGCGCCAACGUUCUCAACUAUGACACGCAAAACGCGUGCUCCGUUGAAUGGAGUUUAUCAUG

Variants of: B1
Assay: polymerase ribozyme fitness, log enrichment relative to wild type (log ratio); higher = more active; in vitro selection for triplet polymerase activity
Method in brief: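 Each subunit of a heterodimeric triplet polymerase ribozyme was represented by a PCR-built, transcribed mutant library that underwent triplicate single-round in vitro selection with frozen incubation at −7 °C. Extended constructs were recovered by gel excision, streptavidin-bead capture and RT-PCR, and Illumina sequencing of input and output libraries kept genotypes with ≥10 input reads and ≥1 read per output. Fitness is the logarithm of genotype enrichment relative to wild-type enrichment, from inverse-variance-weighted replicate averages, with a logarithm base of 2.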

Point of comparison: U45G G152A, “polymerase ribozyme fitness (log ratio)” value -1.18. Against it:
- A47C A60U G84U C93U A98U C108U C131A — lower, ≤ -4.2
- U45G G92A A110U A119U G133C — lower, ≤ -4.2
- G46A G83A G92A C95G U127G G140A — lower, ≤ -4.2
- G46U G58U A89U U102G C118G C129A G152U — lower, ≤ -4.2
- G46C G70A C75G A119C — lower, ≤ -4.2
- A47C C85G C96U C125U — lower, ≤ -4.2
- U45G G46C A113U C129U — lower, ≤ -4.2
- G46A U53G U135G A137G G141C — lower, ≤ -4.2
- A47C A60U G86A A110U — lower, ≤ -4.2
- A47C G84A A115C C129A — lower, ≤ -4.2
- G46U A47C G58U C108U A119U G128U — lower, ≤ -4.2
- G46U C99U — within 0.2 log units, -1.06
- G46U C99A — lower, -3.99
- G46U G71C C95U A97U A115C G136U — lower, ≤ -4.2
- G46U U77G C87U A89U C93A G124U — lower, ≤ -4.2
- A47C C96A C123G U151G — lower, ≤ -4.2
- A47C G50C G81A U82A A91U G126U C132A A138C — lower, ≤ -4.2
- G46C A110G — lower, ≤ -4.2
- A47C C57A G84C G86U U146C C149U — lower, ≤ -4.2
- A47C U77A C93A C116A C149U — lower, ≤ -4.2
- U45G G50A A73C C93U C96U C99A C108A G112C G124U U127G A142G C149G — lower, ≤ -4.2
- G46A G50C C87G A98G G136U — lower, ≤ -4.2
- G46C U82G C87A A110U U146G — lower, ≤ -4.2
- G46U C85A — lower, -2.02
- A47C G71A A91C C103A C125U C131G — lower, ≤ -4.2
- U45G A52C G65C A91U U102G C103G A106G A115C — lower, ≤ -4.2
- G46U A107U U135A C149G — lower, ≤ -4.2
- U45G C69A G92U A115G — lower, ≤ -4.2
- U45G U90G C132U — lower, ≤ -4.2
- G46C A49C G50A U53G C85A U130C — lower, ≤ -4.2
- G46U G58C C69A — lower, ≤ -4.2
- G46A C54U G86U C118U A119G — lower, ≤ -4.2
- U45A G71A C76A G81U C93U A98U C118A U135A — lower, ≤ -4.2
- G46C G50A G67C C69A G100C G128U U151A — lower, ≤ -4.2
- G46U G88U — lower, ≤ -4.2
- G46C A107G G140C — lower, ≤ -4.2
- A47C A52U C85G G92U — lower, ≤ -4.2
- G46U A91C C105U C114U U146G — lower, ≤ -4.2
- G46A A60C C75U U82G G92C C116U G140A — lower, ≤ -4.2
- G46C A47C A52G U82A A110U C118G A138U C149U A150C — lower, ≤ -4.2
- U45A G71A A115C G133A U144G — lower, ≤ -4.2
- G46C G50A G81U G92A C125A — lower, ≤ -4.2
- A47C C54U G83U A142G — lower, -2.18
- A47G A49C G74C G92U C125U — lower, ≤ -4.2
- U45G C54G C85A C95U — lower, ≤ -4.2
- G46C G86A — lower, -1.59
- A47C U53A C85G U139A — lower, ≤ -4.2
- U45C C79U C87U A110U A113U A120U A142U — lower, ≤ -4.2
- G46U G84C C87G A150G — lower, ≤ -4.2
- G46A U56A G81A U82C C96U C125G A150U — lower, ≤ -4.2
- A47C U55A G74U G88C C93G A97G — lower, ≤ -4.2
- G46C A64C G65C G83A G128U — lower, ≤ -4.2
- U45C A91U C96A A98U U101G — lower, ≤ -4.2
- G46C G50U U55A G94A C131A — lower, ≤ -4.2
- U45G G59U C79U C125A A142G — lower, ≤ -4.2
- U45C U77G C79G — lower, ≤ -4.2
- U45A G88U A89C U134G — lower, ≤ -4.2
- G46C U90A — lower, ≤ -4.2
- A47C A60U G80U C93U — lower, ≤ -4.2
- A47C G83A C118U G133C U148C — lower, ≤ -4.2
- G46C A49C U53A G70C C79A C118A A119C C129G — lower, ≤ -4.2
- G46A G58A G59C G83A G124U A138G — lower, ≤ -4.2
- A47C C76G C93U C125U — lower, ≤ -4.2
- U45G C57G A73G U101A C123A C129G — lower, ≤ -4.2
- A47C C85G C93A C99A A120U U127G — lower, ≤ -4.2
- U45G G48A G88C A106G — lower, ≤ -4.2
- U45A G70U C79U G92U A119U U130G — lower, ≤ -4.2
- A47C A66U C93G — lower, ≤ -4.2
- U45G C85G C93A A98U — lower, ≤ -4.2
- A47C A60G C93A C95A C96U U139G — lower, ≤ -4.2
- G46A C76G C96U — lower, ≤ -4.2
- A47C A64U C79U G83U A122C — lower, ≤ -4.2
- G46C G84A G88C C93U C95U C99U — lower, ≤ -4.2
- G46A G84A — lower, -2.74
- G46A G74C — lower, ≤ -4.2
- G46U C69U C96A A110U A121C — lower, ≤ -4.2
- U45A G68A C87G G112C — lower, ≤ -4.2
- U45G C79A C96G C99A A119G G124C A150G — lower, ≤ -4.2
- G46A G58C C85A C116G U134C U144A — lower, ≤ -4.2
- U45G U53A C85U — lower, -1.63
- U45G G84U A142U U146G — lower, ≤ -4.2
- A47C C103G U135G — lower, ≤ -4.2
